# From the supplement of paper PMC8728848
# This is one part of the list.
# How the values were obtained:
# Assay in all cases: glycan array binding signal (z-score within array); higher = stronger binding
# Conditions in all cases: glycan notation: IUPAC condensed, linker removed
# [1] = biological target: GlcNAc(b1-3)Gal(b1-3)GalNAc
# Method in brief: (§1)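 Negative Z-scores can be read as non-binding. The Z-score is calculated within each array and then averaged across arrays of one protein sequence at different concentrations or buffers and across linkers. Arrays, 3228 in all, were curated from the Consortium for Functional Glycomics database and kept only where the protein sequence was available.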
# GlcNAc(b1-3)Gal(b1-4)Glc = biological target: GlcNAc(b1-3)Gal(b1-4)Glc
# Method in brief: as §1
# [2] = biological target: GlcNAc(b1-3)Gal(b1-4)GlcNAc
# Method in brief: as §1
# [3] = biological target: GlcNAc(b1-3)Gal(b1-4)GlcNAc(b1-2)Man(a1-3)[GlcNAc(b1-3)Gal(b1-4)GlcNAc(b1-2)Man(a1-6)]Man(b1-4)GlcNAc(b1-4)GlcNAc
# Method in brief: as §1
# [4] = biological target: GlcNAc(b1-3)Gal(b1-4)GlcNAc(b1-2)Man(a1-3)[GlcNAc(b1-3)Gal(b1-4)GlcNAc(b1-2)Man(a1-6)]Man(b1-4)GlcNAc(b1-4)[Fuc(a1-6)]GlcNAc
# Method in brief: as §1
# [5] = biological target: GlcNAc(b1-3)Gal(b1-4)GlcNAc(b1-2)[GlcNAc(b1-3)Gal(b1-4)GlcNAc(b1-6)]Man(a1-6)[GlcNAc(b1-3)Gal(b1-4)GlcNAc(b1-2)Man(a1-3)]Man(b1-4)GlcNAc(b1-4)GlcNAc
# Method in brief: as §1
# [6] = biological target: GlcNAc(b1-3)Gal(b1-4)GlcNAc(b1-3)Gal(b1-4)GlcNAc
# Method in brief: as §1
# [7] = biological target: GlcNAc(b1-3)Gal(b1-4)GlcNAc(b1-3)Gal(b1-4)GlcNAc(b1-2)Man(a1-3)[GlcNAc(b1-3)Gal(b1-4)GlcNAc(b1-3)Gal(b1-4)GlcNAc(b1-2)Man(a1-6)]Man(b1-4)GlcNAc(b1-4)GlcNAc
# Method in brief: as §1
# [8] = biological target: GlcNAc(b1-3)Gal(b1-4)GlcNAc(b1-3)Gal(b1-4)GlcNAc(b1-2)Man(a1-3)[GlcNAc(b1-3)Gal(b1-4)GlcNAc(b1-3)Gal(b1-4)GlcNAc(b1-2)Man(a1-6)]Man(b1-4)GlcNAc(b1-4)[Fuc(a1-6)]GlcNAc
# Method in brief: as §1
# [9] = biological target: GlcNAc(b1-3)Gal(b1-4)GlcNAc(b1-3)Gal(b1-4)GlcNAc(b1-2)[GlcNAc(b1-3)Gal(b1-4)GlcNAc(b1-3)Gal(b1-4)GlcNAc(b1-6)]Man(a1-6)[GlcNAc(b1-3)Gal(b1-4)GlcNAc(b1-3)Gal(b1-4)GlcNAc(b1-2)Man(a1-3)]Man(b1-4)GlcNAc(b1-4)[Fuc(a1-6)]GlcNAc
# Method in brief: as §1
# [10] = biological target: GlcNAc(b1-3)Gal(b1-4)GlcNAc(b1-3)Gal(b1-4)GlcNAc(b1-3)Gal(b1-4)GlcNAc(b1-2)Man(a1-3)[GlcNAc(b1-3)Gal(b1-4)GlcNAc(b1-3)Gal(b1-4)GlcNAc(b1-3)Gal(b1-4)GlcNAc(b1-2)Man(a1-6)]Man(b1-4)GlcNAc(b1-4)GlcNAc
# Method in brief: as §1
# [11] = biological target: GlcNAc(b1-3)Gal(b1-4)GlcNAc(b1-3)Gal(b1-4)GlcNAc(b1-3)Gal(b1-4)GlcNAc(b1-2)Man(a1-3)[GlcNAc(b1-3)Gal(b1-4)GlcNAc(b1-3)Gal(b1-4)GlcNAc(b1-3)Gal(b1-4)GlcNAc(b1-2)Man(a1-6)]Man(b1-4)GlcNAc(b1-4)[Fuc(a1-6)]GlcNAc
# Method in brief: as §1
# [12] = biological target: GlcNAc(b1-3)Gal(b1-4)GlcNAc(b1-3)Gal(b1-4)GlcNAc(b1-3)Gal(b1-4)GlcNAc(b1-2)[GlcNAc(b1-3)Gal(b1-4)GlcNAc(b1-3)Gal(b1-4)GlcNAc(b1-3)Gal(b1-4)GlcNAc(b1-6)]Man(a1-6)[GlcNAc(b1-3)Gal(b1-4)GlcNAc(b1-3)Gal(b1-4)GlcNAc(b1-3)Gal(b1-4)GlcNAc(b1-2)Man(a1-3)]Man(b1-4)GlcNAc(b1-4)[Fuc(a1-6)]GlcNAc
# Method in brief: as §1
# [13] = biological target: GlcNAc(b1-3)Gal(b1-4)GlcNAc(b1-3)Gal(b1-4)GlcNAc(b1-3)Gal(b1-4)GlcNAc(b1-3)Gal(b1-4)GlcNAc(b1-2)Man(a1-3)[GlcNAc(b1-3)Gal(b1-4)GlcNAc(b1-3)Gal(b1-4)GlcNAc(b1-3)Gal(b1-4)GlcNAc(b1-3)Gal(b1-4)GlcNAc(b1-2)Man(a1-6)]Man(b1-4)GlcNAc(b1-4)GlcNAc
# Method in brief: as §1
# [14] = biological target: GlcNAc(b1-3)Gal(b1-4)GlcNAc(b1-3)Gal(b1-4)GlcNAc(b1-3)Gal(b1-4)GlcNAc(b1-3)Gal(b1-4)GlcNAc(b1-2)Man(a1-3)[GlcNAc(b1-3)Gal(b1-4)GlcNAc(b1-3)Gal(b1-4)GlcNAc(b1-3)Gal(b1-4)GlcNAc(b1-3)Gal(b1-4)GlcNAc(b1-2)Man(a1-6)]Man(b1-4)GlcNAc(b1-4)[Fuc(a1-6)]GlcNAc
# Method in brief: as §1
# [15] = biological target: GlcNAc(b1-3)Gal(b1-4)GlcNAc(b1-3)Gal(b1-4)GlcNAc(b1-3)Gal(b1-4)GlcNAc(b1-3)Gal(b1-4)GlcNAc(b1-2)[GlcNAc(b1-3)Gal(b1-4)GlcNAc(b1-3)Gal(b1-4)GlcNAc(b1-3)Gal(b1-4)GlcNAc(b1-3)Gal(b1-4)GlcNAc(b1-6)]Man(a1-6)[GlcNAc(b1-3)Gal(b1-4)GlcNAc(b1-3)Gal(b1-4)GlcNAc(b1-3)Gal(b1-4)GlcNAc(b1-3)Gal(b1-4)GlcNAc(b1-2)Man(a1-3)]Man(b1-4)GlcNAc(b1-4)[Fuc(a1-6)]GlcNAc
# Method in brief: as §1
# [16] = biological target: GlcNAc(b1-3)Gal(b1-4)GlcNAc(b1-3)Gal(b1-4)GlcNAc(b1-3)GalNAc
# Method in brief: as §1
# [17] = biological target: GlcNAc(b1-3)Gal(b1-4)GlcNAc(b1-3)GalNAc
# Method in brief: as §1
# [18] = biological target: GlcNAc(b1-3)Gal(b1-4)GlcNAc(b1-3)[GlcNAc(b1-3)Gal(b1-4)GlcNAc(b1-3)]GalNAc
# Method in brief: as §1
# [19] = biological target: GlcNAc(b1-3)Gal(b1-4)GlcNAc(b1-6)[Gal(b1-3)]GalNAc
# Method in brief: as §1
# [20] = biological target: GlcNAc(b1-3)Gal(b1-4)GlcNAc(b1-6)[GlcNAc(b1-3)Gal(b1-3)]GalNAc
# Method in brief: as §1
# [21] = biological target: GlcNAc(b1-3)Gal(b1-4)GlcNAc(b1-6)[GlcNAc(b1-3)]Gal(b1-4)GlcNAc
# Method in brief: as §1
# GlcNAc(b1-3)GalNAc = biological target: GlcNAc(b1-3)GalNAc
# Method in brief: as §1
# GlcNAc(b1-3)Man = biological target: GlcNAc(b1-3)Man
# Method in brief: as §1
# [22] = biological target: GlcNAc(b1-3)[GlcNAc(b1-4)][GlcNAc(b1-6)]GlcNAc
# Method in brief: as §1
# [23] = biological target: GlcNAc(b1-3)[GlcNAc(b1-6)]Gal(b1-4)GlcNAc
# Method in brief: as §1
# [24] = biological target: GlcNAc(b1-3)[GlcNAc(b1-6)]GalNAc
# Method in brief: as §1
# [25] = biological target: GlcNAc(b1-4)Gal(b1-4)GlcNAc
# Method in brief: as §1
# GlcNAc(b1-4)GlcNAc = biological target: GlcNAc(b1-4)GlcNAc
# Method in brief: as §1
# [26] = biological target: GlcNAc(b1-4)GlcNAc(b1-4)GlcNAc
# Method in brief: as §1
# [27] = biological target: GlcNAc(b1-4)GlcNAc(b1-4)GlcNAc(b1-4)GlcNAc(b1-4)GlcNAc
# Method in brief: as §1
# [28] = biological target: GlcNAc(b1-4)GlcNAc(b1-4)GlcNAc(b1-4)GlcNAc(b1-4)GlcNAc(b1-4)GlcNAc
# Method in brief: as §1
# [29] = biological target: GlcNAc(b1-4)[GlcNAc(b1-6)]GalNAc
# Method in brief: as §1
# [30] = biological target: GlcNAc(b1-6)Gal(b1-4)GlcNAc
# Method in brief: as §1
# GlcNAc(b1-6)GalNAc = biological target: GlcNAc(b1-6)GalNAc
# Method in brief: as §1
# [31] = biological target: GlcNAc6S(b1-3)Gal(b1-4)GlcNAc
# Method in brief: as §1
# Kdn(a2-3)Gal(b1-3)GalNAc = biological target: Kdn(a2-3)Gal(b1-3)GalNAc
# Method in brief: as §1
binder,measurement,setting,value
"AFL5 (Aspergillus fumigatus), Q4WB00 (protein) MDNFMEMTKKLGHQPELLRLRALDATYDDALEGKLVVAPLDMSEPGKKILDSGTADGTWLRNVRSKQSVPHDYYGSDVEGELFPKDPDGITYFAHSFKDPWPQQYLGFFDLVHIRGSLAGSAPEGPAPVIQNLTTLLKPGGWVQLMEMNAFSPPPNGPAMTDFAKMASEMFTGIGVGDFANNNKSMLEDAGLKNVQEKRVIVNLGKKAKPELHDQSIHGVTGPIVPLTSVARTVKSSFTGEQLDALPARVKEELETEGGQVEMIIAFGQKA",glycan array binding signal (z-score),[1],0.205
same,glycan array binding signal (z-score),GlcNAc(b1-3)Gal(b1-4)Glc,-0.576
same,glycan array binding signal (z-score),[2],-0.568
same,glycan array binding signal (z-score),[3],-0.04
same,glycan array binding signal (z-score),[4],0.456
same,glycan array binding signal (z-score),[5],0.202
same,glycan array binding signal (z-score),[6],-0.215
same,glycan array binding signal (z-score),[7],0.689
same,glycan array binding signal (z-score),[8],0.981
same,glycan array binding signal (z-score),[9],1.94
same,glycan array binding signal (z-score),[10],0.953
same,glycan array binding signal (z-score),[11],1.47
same,glycan array binding signal (z-score),[12],0.666
same,glycan array binding signal (z-score),[13],1.02
same,glycan array binding signal (z-score),[14],0.113
same,glycan array binding signal (z-score),[15],0.383
same,glycan array binding signal (z-score),[16],0.11
same,glycan array binding signal (z-score),[17],0.052
same,glycan array binding signal (z-score),[18],0.653
same,glycan array binding signal (z-score),[19],0.028
same,glycan array binding signal (z-score),[20],0.134
same,glycan array binding signal (z-score),[21],-0.575
same,glycan array binding signal (z-score),GlcNAc(b1-3)GalNAc,-0.251
same,glycan array binding signal (z-score),GlcNAc(b1-3)Man,0.386
same,glycan array binding signal (z-score),[22],-0.493
same,glycan array binding signal (z-score),[23],-0.206
same,glycan array binding signal (z-score),[24],-0.216
same,glycan array binding signal (z-score),[25],0.475
same,glycan array binding signal (z-score),GlcNAc(b1-4)GlcNAc,-0.156
same,glycan array binding signal (z-score),[26],-0.623
same,glycan array binding signal (z-score),[27],0.1
same,glycan array binding signal (z-score),[28],-0.321
same,glycan array binding signal (z-score),[29],-0.569
same,glycan array binding signal (z-score),[30],0.303
same,glycan array binding signal (z-score),GlcNAc(b1-6)GalNAc,0.056
same,glycan array binding signal (z-score),[31],-0.18
same,glycan array binding signal (z-score),Kdn(a2-3)Gal(b1-3)GalNAc,0.195
